Measurements published in PubChem BioAssay AID1159614 (National Center for Advancing Translational Sciences (NCATS), 2016).
The whole screen tested about 45,000 compounds, of which about 65 (0.1%) were called active. Calls follow the shape of the dose curve; as a rule, active = well fitted activation curve with a large enough effect; inconclusive = small, poorly fitted or top-dose-only effect; inactive = no such curve, though single readings can be large or run the other way. The list shows a part of the results.

molecular target: Galactocerebrosidase (Homo sapiens) (UniProt P54803); assay: A Novel Cell-Based Assay to Identify Small Molecules for B -Galactocerebrosidase; conditions: 145M-Twi-hGALC-G270D cells (Twitcher mouse brain line with human GALC G270D), HMU-beta-Gal fluorescence, 48 h; activation: at the top concentration; also: 0% is about no effect; nearly all actives have a fitted effect of over 65% in size
UniProt P54803, sequence (P54803 whole entry, looked up): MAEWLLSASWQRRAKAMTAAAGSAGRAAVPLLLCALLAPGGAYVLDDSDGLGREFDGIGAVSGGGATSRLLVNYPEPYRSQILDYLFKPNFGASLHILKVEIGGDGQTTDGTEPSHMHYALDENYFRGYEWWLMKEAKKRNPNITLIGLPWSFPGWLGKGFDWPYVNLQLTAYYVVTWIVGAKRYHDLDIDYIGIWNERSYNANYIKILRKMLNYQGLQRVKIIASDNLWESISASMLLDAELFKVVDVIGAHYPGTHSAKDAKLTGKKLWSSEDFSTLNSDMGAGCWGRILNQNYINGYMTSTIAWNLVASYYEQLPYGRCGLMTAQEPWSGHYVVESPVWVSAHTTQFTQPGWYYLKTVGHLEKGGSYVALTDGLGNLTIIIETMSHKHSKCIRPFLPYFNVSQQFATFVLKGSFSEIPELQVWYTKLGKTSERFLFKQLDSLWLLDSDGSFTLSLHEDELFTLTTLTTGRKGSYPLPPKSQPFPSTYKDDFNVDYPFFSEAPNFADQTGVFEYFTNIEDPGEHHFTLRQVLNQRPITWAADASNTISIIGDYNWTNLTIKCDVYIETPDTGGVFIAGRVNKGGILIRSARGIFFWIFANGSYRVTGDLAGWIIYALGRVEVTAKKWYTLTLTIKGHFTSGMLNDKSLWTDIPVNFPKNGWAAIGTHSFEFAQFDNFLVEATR
Summary of the method: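 Live 145M-Twi cells (Twitcher mouse brain-derived, GALC-null) stably expressing human GALC-G270D, with a wild-type GALC line, were compound-treated. Residual GALC activity was then read as fluorescence from 0.1 mM final HMU-β-gal at pH 5.2; higher signal means activation.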

| Structure (SMILES) | activation |
| --- | --- |
| c1ccc2c(c1)Nc1ccccc1S2 | inactive |
| C[C@]12CC[C@H]3[C@@H](CC=C4C[C@@H](O)CC[C@@]43C)[C@@H]1CC[C@@H]2O | inactive: -8.91% |
| CC(C)c1ccc(NC(=O)CN2C(=O)CN=C(c3ccccc3)c3ccccc32)cc1 | inactive: -7.14% |
| CC(C)(C)C(O)C(Oc1ccc(Cl)cc1)n1cncn1 (configuration not stated) | inactive: -12% [at 114 µM] |
| Clc1ccccc1N1CCNCC1 | inactive: -8.3% |
| CC(=O)OCC(=O)Nc1cc(C#N)cc(NC(=O)COC(C)=O)c1Cl | inactive: -14.6% |
| COc1ccc(OCC(=O)N2CCN(CCc3ccccn3)CC2)cc1 | inactive: -16.4% |
| COc1cc(CC(C)N)c(OC)cc1Br (configuration not stated) | inactive: -6.18% [at 129 µM] |
| COc1cc(CN2CCc3nc(N4CCN(c5ccccc5F)CC4)ncc3C2)ccc1OC(C)C | inactive: -22.7% |
| COP(=O)(OC)OC=C(Cl)Cl | inactive: -14.7% |
| CC(C)C(Br)C(=O)NC(N)=O (configuration not stated) | inactive: -11.3% |
| Cc1ccc(-n2c(/C=C/c3cc(Br)cs3)nc3ccccc3c2=O)cc1C | inactive: -4.06% |
| COc1ccc(C)cc1NC(=O)c1cccn(Cc2ccccc2Cl)c1=O | inactive: 7.61% |
| N#CC(C#N)=Cc1ccc(O)c(O)c1 | inactive: -3.89% |
| Cc1ccc(N2CCN(C(=O)C3CCC(CNS(=O)(=O)c4ccc(Br)s4)CC3)CC2C)cc1 (configuration not stated) | inactive: -32.1% |
| C[C@@H]1CC2=CC(=O)CC[C@@H]2[C@H]2CC[C@@]3(C)[C@@H](CC[C@]3(C)O)[C@@H]21 | inactive: -11.4% |
| C=CCC1=C(C)C(OC(=O)C2C(C=C(C)C)C2(C)C)CC1=O (configuration not stated) | inactive: -7.98% [at 114 µM] |
| Cc1cccc(C)c1OCC(=O)Nc1ccc(Cl)cc1C(=O)c1ccccc1 | inactive: -26.2% |
| O=C(NCCSc1c(-c2ccc(F)cc2)[nH]c2ccccc12)c1ccc(S(=O)(=O)N2CCOCC2)cc1 | inactive: -44.6% |
| Cc1cccc(C)c1NC(=O)CN1CCCC1=O | inactive: -7.23% |
| O=C(COc1ccccc1[N+](=O)[O-])N1CCN(CCc2ccncc2)CC1 | inactive: -1.97% |
| CCNc1nc(Cl)nc(NCC)n1 | inactive: -17.6% |

| Structure (SMILES) | activation |
| --- | --- |
| Oc1ccc2c3c1O[C@H]1[C@@H](O)C=C[C@H]4[C@@H](C2)NCC[C@@]341 | inactive: -6.53% [at 129 µM] |
| CN1CCC(O)(c2ccc(F)cc2)C(C(=O)c2ccc(F)cc2)C1 (configuration not stated) | inactive: -15.6% |
| COC(=O)c1ccc(NC(C)=O)cc1OC | inactive: -12.2% |
| O=c1n(Cl)c(=O)n(Cl)c(=O)n1Cl | inactive: -16.5% |
| Cn1c(=O)n(C)c2cc(CNCCc3ccccc3F)ccc21 | inactive: -19.6% |
| Cn1cc(C2=C(c3cn(C4CCN(Cc5ccccn5)CC4)c4ccccc34)C(=O)NC2=O)c2ccccc21 | inactive: -9.99% |
| OCCOc1ccccc1 | inactive: -10.1% |
| O=C1CC(c2ccccc2Br)c2c(c3ccccc3oc2=O)O1 (configuration not stated) | inactive: -8.32% |
| C=CCN1CC[C@]23c4c5ccc(O)c4O[C@H]2C(=O)CC[C@@]3(O)[C@H]1C5 | inactive: -9.07% |
| Cc1ccc(-n2c(/C=C/c3ccccc3)nc3ccccc3c2=O)cc1Cl | inactive: -3.66% |
| Cc1oc(-c2ccccc2F)nc1CS(=O)(=O)CC(=O)N1CCN(c2cccc(C(F)(F)F)c2)CC1 | inactive: -32.8% |
| CC(CC(C#N)(c1ccccc1)c1ccccc1)N(C)C (configuration not stated) | inactive: -8.31% [at 114 µM] |
| COP(=O)(OC)C(O)C(Cl)(Cl)Cl (configuration not stated) | inactive: -14.5% |
| COc1ccc(OC)c(CCNCc2c(C(=O)O)c(C)n(Cc3ccc(F)cc3Cl)c2C)c1 | inactive: -10.4% |
| CN1CCC(N(Cc2ccccc2)c2ccccc2)CC1 | inactive: -4.22% |
| O=C1NCN(c2ccccc2)C12CCN(CCCOc1ccc(F)cc1)CC2 | inactive: -10.5% |
| CCCC1=Nc2cc(C(=O)NCCc3ccc(OC)cc3OC)ccc2Sc2ccccc21 | inactive: -32.2% |
| Cc1cc(OCC(=O)N2CCN(CCc3ccncc3)CC2)cc(C)c1Cl | inactive: -17.7% |
| COc1ccc(NC(=O)CCc2nc(C3=CCN(Cc4cccc(C)c4)CC3)no2)c(OC)c1 | inactive: -12.9% |
| CN1C[C@H](CNC(=O)OCc2ccccc2)C[C@@H]2c3cccc4c3c(cn4C)C[C@H]21 | inactive: -8.52% |
| Cc1cccc(-n2c(/C=C\c3cccc(Br)c3)nc3ccccc3c2=O)c1 | inactive: -22.3% |
| CCCCCCCCCCCCCCCC[N+](C)(C)C | inactive: -16.1% |

| Structure (SMILES) | activation |
| --- | --- |
| CCCCCCCCCC(=O)O[C@H]1CC[C@H]2[C@@H]3CCC4=CC(=O)CC[C@@H]4[C@H]3CC[C@]12C | inactive: -7.27% |
| CCN[C@H](C)Cc1cccc(C(F)(F)F)c1 | inactive: -2.91% [at 114 µM] |
| COc1ccc(C2CC(=O)Oc3c2c(=O)oc2ccccc32)c(OC)c1OC (configuration not stated) | inactive: -17.1% |
| Cc1ccc(Cn2cccc(C(=O)Nc3ccc(C)c(Cl)c3)c2=O)cc1 | inactive: -23.1% |
| Cc1ccc(CNC(=O)CCCn2c(=O)c3sccc3n(CC(=O)Nc3c(C)cccc3C)c2=O)cc1 | inactive: -5.43% |
| CC#C[C@]1(O)CC[C@H]2[C@@H]3C[C@H](C)C4=CC(=O)CC[C@]4(C)[C@H]3CC[C@@]21C | inactive: -20.6% |
| Clc1ccc(COC(Cn2ccnc2)c2ccc(Cl)cc2Cl)cc1 (configuration not stated) | inactive: 1.68% |
| CC(C)c1cccc(C(C)C)c1O | inactive: 0.141% |
| Cc1nnc(NC(=O)c2cccn(Cc3ccccc3)c2=O)s1 | inactive: -20.7% |
| Cc1cccc(OC(C)C(=O)NCC2(N(C)C)CCCCC2)c1C (configuration not stated) | inactive: -16.6% |
| CN(C)CCc1c[nH]c2ccccc12 | inactive: -7.92% [at 129 µM] |
| CC(Cc1ccccc1)N(C)Cc1ccco1 (configuration not stated) | inactive: -14.6% |
| O=C(Nc1nc2ccccc2s1)c1cccn(Cc2ccccc2)c1=O | inactive: -3.61% |
| CC[N+]1(C)CCCC(OC(=O)C(O)(c2ccccc2)c2ccccc2)C1 (configuration not stated) | inactive: -16.6% |
| CCCc1nc(SC)ncc1C(=O)Nc1ccc(Cl)cc1C(=O)c1ccccc1 | inactive: -9.82% |
| O=C(Nc1ccc(Br)cc1)c1ccc(Cl)c(S(=O)(=O)N2CCCCCC2)c1 | inactive: -20% |
| Cc1nnc2n1-c1sc(CCC(=O)N3CCOCC3)cc1C(c1ccccc1Cl)=NC2 | inactive: -8.68% |
| Nc1ccc([N+](=O)[O-])cc1 | inactive: -7.8% [at 114 µM] |
| CCOc1ccc(CN(CCc2ccc3c(c2)OCO3)Cc2cccc(Br)c2)cc1 | inactive: 6.78% |
| c1ccc2c(c1)OCC(C1=NCCN1)O2 (configuration not stated) | inactive: -6.97% |
| O=C(COc1ccccc1Cl)N1CCN(CCc2ccccn2)CC1 | inactive: -16.6% |
| C[C@]12CC[C@H](O)CC1=CC[C@@H]1[C@@H]2CC[C@]2(C)C(=O)CC[C@@H]12 | inactive: -6.64% |

| Structure (SMILES) | activation |
| --- | --- |
| CC(Cc1ccccc1)NCc1ccccc1Cl (configuration not stated) | inactive: -9.95% |
| CN1C(=O)CN=C(c2ccccc2)c2cc(Cl)ccc21 | inactive: -8.59% |
| Cc1ccccc1-n1nc(C)c2c1NC(=O)CSC2c1ccccc1C(F)(F)F (configuration not stated) | inactive: -10.4% |
| c1ccc(CN2CCNCC2)cc1 | inactive: -7.89% [at 273 µM] |
| COc1ccccc1CN1CCN(C(=O)COc2cccc(C)c2)CC1 | inactive: -24% |
| COc1ccc(NC(=O)CN2C(=O)CN=C(c3ccccc3)c3ccccc32)c(OC)c1 | inactive: -32% |
| CC[C@@H](CO)NC(=O)[C@@H]1C=C2c3cccc4c3c(cn4C)C[C@H]2N(C)C1 | inactive: -6.52% |
| CCOc1ccc(CN(CCc2ccc3c(c2)OCO3)Cc2ccc(CC)cc2)cc1 | inactive: -2.6% |
| CC(C)OP(=O)(CP(=O)(OC(C)C)OC(C)C)OC(C)C | inactive: -11.9% |
| COP(=S)(OC)Oc1ccc(S(=O)(=O)N(C)C)cc1 | inactive: -17.2% |
| CCc1ccc(NC(=O)Cn2c(=O)oc3cc(S(=O)(=O)NCc4ccccc4)ccc32)cc1 | inactive: -43.5% [at 11.5 µM] |
| COc1ccc2c(c1OC)CN1CCc3cc4c(cc3C1C2)OCO4 (configuration not stated) | inactive: -21.3% |
| CCOC(=O)c1ccc(N2C(=O)c3n[nH]c(-c4cccs4)c3C2c2ccc(OC)cc2OC)cc1 (configuration not stated) | inactive: -30.6% |
| C[CH2][Hg][S]c1ccccc1C(=O)O | inactive: -20.6% |
| CCn1c(CN2CCN(C)CC2)nc2ccccc21 | inactive: -13.3% |
| CC(=O)C1CCOC1=O (configuration not stated) | inactive: -15.3% |
| O=C(Nc1ccc(OC(F)(F)F)cc1)c1cccn(Cc2ccccc2Cl)c1=O | inactive: -9.72% |
| O=C(c1ccc2c(c1)N(Cc1c(F)cccc1Cl)C(=O)c1ccccc1S2)N1CCC2(CC1)OCCO2 | inactive: -12.6% |
| C[C@H]1O[C@@H](O[C@H]2[C@@H](O)C[C@H](O[C@H]3[C@@H](O)C[C@H](O[C@H]4CC[C@@]5(C)[C@H](CC[C@@H]6[C@@H]5CC[C@]5(C)[C@@H](C7=CC(=O)OC7)CC[C@]65O)C4)O[C@@H]3C)O[C@@H]2C)C[C@H](O)[C@@H]1O | inactive: -6.8% |
| Cc1ccc(C)c(CN2C(=O)c3ccccc3Sc3ccc(C(=O)N4CCC5(CC4)OCCO5)cc32)c1 | inactive: -6.59% |
| Cc1cccc(CN2C(=O)CN=C(c3ccccc3Cl)c3cc(Cl)ccc32)c1 | inactive: -8.31% |
| CN1C(=O)c2ccccc2Sc2ccc(NC(=O)NCc3ccc(Cl)cc3)cc21 | inactive: -37.7% |

| Structure (SMILES) | activation |
| --- | --- |
| O=c1[nH]oc2c1CCNC2 | inactive: -11.3% |
| C[C@]12CC[C@H]3[C@@H](CCC4=CC(=O)CC[C@@]43C)[C@@H]1CC[C@@H]2C(=O)CO | inactive: -10.9% |
| CN1[C@@H]2CC[C@H]1CC(OC(=O)c1cc(Cl)cc(Cl)c1)C2 (some centres not stated) | inactive: -12.7% |
| CCOC(C(=O)OCCN(C)C)(c1ccccc1)c1ccccc1 | inactive: -10% |
| C[C@H](N)C(=O)c1ccccc1 | inactive: 7.02% [at 129 µM] |
| Cc1ccc2scc(N3CCN(C)CC3)c(=O)c2c1 | inactive: -4.45% |
| C[C@@H]1C[C@@H]([C@H](O)CC2CC(=O)NC(=O)C2)C(=O)[C@@H](C)C1 | inactive: -17.2% |
| Cc1ccc(-n2c(/C=C/c3ccccc3)nc3ccccc3c2=O)cc1C | inactive: -9.56% |
| O=C(O)C(Cl)Cl | inactive: -14% |
| Nc1ccccc1C(=O)OCC(O)CO (configuration not stated) | inactive: -21.7% |
| O=C(O)c1nn(Cc2ccc(Cl)cc2Cl)c2ccccc12 | inactive: -6.45% |
| CC(=O)c1ccc(NC(=O)c2sc3nc4c(cc3c2N)N2CCC4CC2)cc1 | inactive: -8.62% |
| Cc1ccc(-n2c(/C=C/c3cccc(C(F)(F)F)c3)nc3ccccc3c2=O)cc1 | inactive: -4.01% |
| NC(=O)c1ccc(NC(=O)c2cccn(Cc3ccccc3)c2=O)cc1 | inactive: -13% |
| Cc1c(C(c2ccc(O)cc2)c2c(O)c3ccccc3oc2=O)c(=O)n(-c2ccccc2)n1C (configuration not stated) | inactive: -13.5% |
| CCOc1ccc(CN2C(=O)c3ccccc3Sc3ccc(C(=O)N4CCC5(CC4)OCCO5)cc32)cc1 | inactive: -11.3% |
| CC[C@@H](CO)NC(=O)[C@@H]1C=C2c3cccc4[nH]cc(c34)C[C@H]2N(C)C1 | inactive: -7.56% |
| CCSc1nnc(NC(=O)c2cccn(Cc3ccc(Cl)cc3)c2=O)s1 | inactive: -23% |
| CCC1(C2=NCCN2)Cc2ccccc2O1 (configuration not stated) | inactive: -11% |
